Reference: PubChem BioAssay AID624418 (National Center for Advancing Translational Sciences (NCATS), 2012)
About 530 (0.13%) of roughly 410,000 compounds were called active. The inconclusive results got no clear call from the source; some entries with a clear call stand among them for comparison. Calls follow the shape of the dose curve; as a rule, active = well fitted inhibition curve with a large enough effect; inconclusive = small, poorly fitted or top-dose-only effect, or another doubt; inactive = no such curve, though single readings can be large or run the other way. Potencies beside an inconclusive call are fits to weak or partial responses and may not hold up.
Potency is read from the fitted curve at half-maximal effect.

Test: qHTS of GLP-1 Receptor Inverse Agonists: Cytotox Screen
Settings: HEK293 cAMP-luciferase reporter cells, luminescence, 24 h; series mostly up to 38.3 µM
Outline: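 Here, cytotoxicity is scored as loss of luminescence. The MLSMR collection was tested on cells seeded in medium containing 10% Nu serum, with a 24 hr compound exposure preceded by 12 hours of culture.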
For `Cc1cc(C)c2ccc(/C=N/O)nc2c1O`, the Potency was inconclusive: 12.6 µM [inhibitor, single point].
For `Cc1cc(C)n(C(=O)c2ccc([N+](=O)[O-])cc2Cl)n1`, the Potency was “inactive”.
With `CN(C)CCOC1c2ccccc2CCc2ccc3ccccc3c21` (configuration not stated) the Potency was inconclusive: 28.2 µM [inhibitor, single point].
In the case of `O=C(c1cc2cc(F)ccc2[nH]1)N(Cc1cccnc1)CC1CCCN(C2CCCCC2)C1` (configuration not stated), the Potency is reported as inconclusive: 20 µM [inhibitor, single point].
In the case of `O=C(CN1CCCCCC1)NN(Cc1ccccc1)c1ccccc1`, the Potency is reported as “inactive”.
In the case of `COc1cc(CNC(C)c2ccccc2)cc(Br)c1OCc1ccccc1` (configuration not stated), the Potency is reported as inconclusive: 28.2 µM [inhibitor, single point].
For `c1ccc2c(c1)OCC(c1csc3ncnc(N4CCCC4)c13)O2` (configuration not stated), the Potency was “inactive”.
In the case of `COc1ccccc1C(CNC(=O)c1cccc(S(=O)(=O)Nc2ccc(C)cc2)c1)N(C)C` (configuration not stated), the Potency is reported as inconclusive: 28.2 µM [inhibitor, single point].
In the case of `CCOC(=O)C1=CN(c2cccc(F)c2)C=C(C(=O)OCC)C1c1cc(OC)c(O)c([N+](=O)[O-])c1`, the Potency is reported as inconclusive: 3.55 µM [inhibitor, partial curve, poor fit].
In the case of `CCN(CC)CCCNC(=O)c1oc2ccc(S(=O)(=O)N3CC(C)CC(C)C3)cc2c1C` (configuration not stated), the Potency is reported as inconclusive: 28.2 µM [inhibitor, single point].
In the case of `O=C(CNC(=O)c1cccc(F)c1)N/N=C/c1cc(Br)ccc1OC(=O)/C=C/c1ccco1`, the Potency is reported as inconclusive: 3.98 µM [inhibitor, partial curve].
In the case of `CCn1c(SCC(=O)Nc2ccc(NC(C)=O)cc2)nc2c1c(=O)n(C)c(=O)n2C`, the Potency is reported as “inactive”.
In the case of `COc1ccc(S(=O)(=O)Nc2ccc3c(c2)N(C(C)=O)CCC3)cc1F`, the Potency is reported as inconclusive: 14.1 µM [inhibitor, single point].
In the case of `CCOCCSc1nc2c(c(-c3cccs3)c1C#N)CC/C2=C/c1cccs1`, the Potency is reported as “inactive”.
In the case of `O=c1cnnc(N/N=C/c2ccccn2)[nH]1`, the Potency is reported as inconclusive: 8.91 µM [inhibitor, partial curve].
For `O=C(CSc1nc(-c2ccccc2Cl)ns1)Nc1ccc2c(c1)OCO2`, the Potency was inconclusive: 20 µM [inhibitor, partial curve, poor fit].
In the case of `CC1CCN(C(=S)c2ccc(-c3ccc(Cl)cc3Cl)o2)CC1`, the Potency is reported as inconclusive: 11.2 µM [inhibitor, single point].
With `Oc1ccc(NC(=S)Nc2ccccc2)cc1` the Potency was “inactive”.
For `CC(=O)c1ccc(NC(=O)Cn2cc(S(=O)(=O)Cc3cccc(Cl)c3)c3ccccc32)cc1`, the Potency was inconclusive: 22.4 µM [inhibitor, single point].
For `COc1ccc(/C=C/C(=O)NC(=S)N2CCN(c3ccccn3)CC2)cc1OC`, the Potency was inconclusive: 28.2 µM [inhibitor, single point].
For `COc1ccc(C2c3ccc4ccccc4c3Oc3ncn(Cc4ccco4)c(=N)c32)cc1OC` (configuration not stated), the Potency was inconclusive: 14.1 µM [inhibitor, single point].
In the case of `CCCCN(CC)CCCNC(=O)C1CCN(c2ncnc3c2sc2cccc(F)c23)CC1`, the Potency is reported as inconclusive: 28.2 µM [inhibitor, single point].
For `Nc1nonc1C(=O)NCCNCc1cc(Br)ccc1OCc1ccc(F)cc1`, the Potency was inconclusive: 28.2 µM [inhibitor, single point].
In the case of `CC(C)(C)c1cc(C(=O)Nc2ccc(F)cc2)n(Cc2ccc(F)cc2)n1`, the Potency is reported as inconclusive: 22.4 µM [inhibitor, single point].
With `CN(C)c1ccc(-c2nc3ccccc3c(=O)[nH]2)cc1` the Potency was “inactive”.
With `CCCNC(=O)c1cc(Cl)c(NC(=O)C2=C(C)OCCS2)cc1OC` the Potency was “inactive”.
In the case of `COC(=O)[C@H]1C[C@@H]1[C@H](N)c1ccccc1`, the Potency is reported as “inactive”.
For `CCN(CC)CCNC(=O)c1ccc(NC(=O)c2cccc(S(=O)(=O)N(C)C3CCCCC3)c2)cc1`, the Potency was inconclusive: 28.2 µM [inhibitor, single point].
For `Cc1c(CCNC(=O)c2ccc(Br)o2)sc2nc(-c3ccc(F)cc3)nn12`, the Potency was inconclusive: 11.2 µM [inhibitor, partial curve, poor fit].
With `CCNC(=S)N/N=C/c1ccccc1[N+](=O)[O-]` the Potency was inconclusive: 28.2 µM [inhibitor, single point].
In the case of `C=CCN(C)CC/C=C1\c2ccccc2CSc2ccccc21`, the Potency is reported as inconclusive: 28.2 µM [inhibitor, single point].
With `CC(C)=C1CCC(C)CC1=NNC(N)=S` (configuration not stated) the Potency was inconclusive: 14.1 µM [inhibitor, single point].
For `CCOc1cc(CNc2ccc(O)cc2)ccc1OCc1ccc(Cl)cc1Cl`, the Potency was inconclusive: 10 µM [inhibitor, single point].
With `O=S(=O)(N[C@H]1C[C@@H](NS(=O)(=O)OCC(Cl)(Cl)Cl)C2CCCCC21)OCC(Cl)(Cl)Cl` (some centres not stated) the Potency was inconclusive: 28.2 µM [inhibitor, single point].
For `O=C(NC(Cc1ccccc1)C(=O)O)/C(=C\c1ccc(Cl)cc1)NC(=O)c1ccccc1` (configuration not stated), the Potency was “inactive”.
With `O=[N+]([O-])c1cccc(N/N=C/c2cc([N+](=O)[O-])ccc2O)c1` the Potency was inconclusive: 28.2 µM [inhibitor, single point].
For `O=C(Nc1ccc(F)c(F)c1)C1=COCCO1`, the Potency was “inactive”.
With `C/C(=C/c1oc2ccc(O)cc2c1[N+](=O)[O-])N(C)C` the Potency was inconclusive: 12.6 µM [inhibitor, partial curve, poor fit].
In the case of `COc1cc(C=C2C(=O)C=CC2=O)ccc1O`, the Potency is reported as inconclusive: 28.2 µM [inhibitor, single point].
In the case of `Cc1ccc(/C=C2/SC(=S)N(CCC(=O)NCCCN3CCOCC3)C2=O)cc1`, the Potency is reported as inconclusive: 7.94 µM [inhibitor, single point].
In the case of `COc1cccc(N2C(=O)CC(Sc3nc(C)cc(C)n3)C2=O)c1` (configuration not stated), the Potency is reported as inconclusive: 2.82 µM [inhibitor, single point].
With `O=C(CCN1C(=O)/C(=C/c2ccccc2F)SC1=S)NCCc1ccc(O)cc1` the Potency was inconclusive: 25.1 µM [inhibitor, single point].
With `COc1cc(OC)c(/C=C2\C(=O)Nc3ccccc32)c(OC)c1` the Potency was inconclusive: 7.94 µM [inhibitor, partial curve, poor fit].
With `O=C(CSc1nc(Cc2ccccc2)nc2ccccc12)Nc1ccc2c(c1)OCCO2` the Potency was inconclusive: 12.6 µM [inhibitor, single point].
For `C=CCN=c1scc(-c2ccc3c(c2)NC(=O)CO3)n1/N=C(\C)c1ccccn1`, the Potency was inconclusive: 11.2 µM [inhibitor, partial curve, poor fit].
In the case of `COc1ccc(OC)c(-n2c(C)ccc2-c2ccc(S(C)(=O)=O)cc2)c1`, the Potency is reported as “inactive”.
In the case of `NC(=S)C(c1ccccc1)c1ncc(C(F)(F)F)cc1Cl` (configuration not stated), the Potency is reported as inconclusive: 28.2 µM [inhibitor, single point].
For `Cc1[nH]c2ccccc2c1C(c1ccccn1)c1c(C)[nH]c2ccccc12`, the Potency was “inactive”.
For `O=C(Nc1ccc2c(c1)OCCO2)C(C1CC1)N1CCN(C/C=C/c2ccccc2)CC1` (configuration not stated), the Potency was “inactive”.
With `Cc1ccccc1Cn1c(CN2CCCC(C)C2)nc2c1c(=O)n(C)c(=O)n2C` (configuration not stated) the Potency was “inactive”.
For `Cc1ccc2nc(C)cc(Nc3ccc([N+](=O)[O-])cc3)c2c1`, the Potency was inconclusive: 5.01 µM [inhibitor, full curve].
With `Cc1cc(N/N=C/c2ccc3c(c2)OCO3)nc2ccccc12` the Potency was “inactive”.
For `COc1cc(/C=C(\C#N)c2nc3ccccc3o2)ccc1O`, the Potency was inconclusive: 28.2 µM [inhibitor, single point].
For `CC(C)(C)OC(=O)N1CCC(c2c(C(=O)NCCN3CCC(Cc4ccccc4)CC3)cnn2-c2ccc(F)cc2)CC1`, the Potency was inconclusive: 22.4 µM [inhibitor, single point].
In the case of `CCOC(OCC)c1cn(Cc2ccc(C(=O)c3ccccc3)cc2)nn1`, the Potency is reported as inconclusive: 12.6 µM [inhibitor, partial curve, poor fit].
With `Cc1ccc(S(=O)(=O)N2CCCCC2CCNC(=O)C(=O)NCc2cccnc2)cc1` (configuration not stated) the Potency was inconclusive: 6.31 µM [inhibitor, partial curve, poor fit].
In the case of `COc1ccc(OC)c(CCNc2nc3ccccc3c3nc(-c4cccnc4)nn23)c1`, the Potency is reported as “inactive”.
With `CCN1C[C@@H]2[C@@H]3C(=O)N(C)C(=O)[C@@H]3[C@](C)(C1=O)N2C(=O)c1ccc(F)cc1` the Potency was inconclusive: 11.2 µM [inhibitor, partial curve, poor fit].
In the case of `CC1C(c2ccccc2)N(C)C(c2ccccc2)CC1(O)c1ccccc1` (configuration not stated), the Potency is reported as inconclusive: 10 µM [inhibitor, partial curve].
In the case of `Cc1cc(C)c2cc(CN(CCO)Cc3nnnn3Cc3ccc(F)cc3)c(=O)[nH]c2c1`, the Potency is reported as “inactive”.
For `COc1ccc(NC(=S)NC(=O)c2ccc3c(c2)OCCO3)cc1`, the Potency was “inactive”.
For `O=C(COc1cccc2ccccc12)Nc1nc2ccccc2[nH]1`, the Potency was inconclusive: 28.2 µM [inhibitor, single point].
In the case of `COc1cccc(OCc2cc(C(=O)N(C)C3CCOCC3)no2)c1`, the Potency is reported as “inactive”.
In the case of `CCc1ccc(OCC2c3cc(OC)c(OC)cc3CCN2C(=O)COc2ccccc2)cc1` (configuration not stated), the Potency is reported as “inactive”.
With `Cc1cccc(CN2C(=O)N/C(=C/c3ccc(C)s3)C2=O)c1` the Potency was “inactive”.
With `CC(C)C[C@@H](CN1CCC[C@@H]1CN1C(=S)NC[C@@H]1Cc1ccc(O)cc1)N1C[C@H](Cc2ccc(O)cc2)N(CC2CCCCC2)C1=S` the Potency was inconclusive: 28.2 µM [inhibitor, single point].
For `Cc1cc(NC(=O)COC(=O)c2cc([N+](=O)[O-])ccc2N2CCOCC2)ccc1Br`, the Potency was inconclusive: 3.55 µM [inhibitor, partial curve, poor fit].
